Measured values taken from PMC4336329 (PLoS ONE, 2015).
Among all 310,000 compounds or so, about 2,200 (0.71%) showed an effect of 50% or more. The effect is printed as a negative number. This is one part of the list.

The compounds below were run against human ether-à-go-go-related gene (hERG) potassium channel (human, UniProt Q12809) (assay: primary screen, population patch clamp on CHO cells stably expressing hERG).
Sequence of human ether-à-go-go-related gene (hERG) potassium channel (Q12809 whole entry, looked up): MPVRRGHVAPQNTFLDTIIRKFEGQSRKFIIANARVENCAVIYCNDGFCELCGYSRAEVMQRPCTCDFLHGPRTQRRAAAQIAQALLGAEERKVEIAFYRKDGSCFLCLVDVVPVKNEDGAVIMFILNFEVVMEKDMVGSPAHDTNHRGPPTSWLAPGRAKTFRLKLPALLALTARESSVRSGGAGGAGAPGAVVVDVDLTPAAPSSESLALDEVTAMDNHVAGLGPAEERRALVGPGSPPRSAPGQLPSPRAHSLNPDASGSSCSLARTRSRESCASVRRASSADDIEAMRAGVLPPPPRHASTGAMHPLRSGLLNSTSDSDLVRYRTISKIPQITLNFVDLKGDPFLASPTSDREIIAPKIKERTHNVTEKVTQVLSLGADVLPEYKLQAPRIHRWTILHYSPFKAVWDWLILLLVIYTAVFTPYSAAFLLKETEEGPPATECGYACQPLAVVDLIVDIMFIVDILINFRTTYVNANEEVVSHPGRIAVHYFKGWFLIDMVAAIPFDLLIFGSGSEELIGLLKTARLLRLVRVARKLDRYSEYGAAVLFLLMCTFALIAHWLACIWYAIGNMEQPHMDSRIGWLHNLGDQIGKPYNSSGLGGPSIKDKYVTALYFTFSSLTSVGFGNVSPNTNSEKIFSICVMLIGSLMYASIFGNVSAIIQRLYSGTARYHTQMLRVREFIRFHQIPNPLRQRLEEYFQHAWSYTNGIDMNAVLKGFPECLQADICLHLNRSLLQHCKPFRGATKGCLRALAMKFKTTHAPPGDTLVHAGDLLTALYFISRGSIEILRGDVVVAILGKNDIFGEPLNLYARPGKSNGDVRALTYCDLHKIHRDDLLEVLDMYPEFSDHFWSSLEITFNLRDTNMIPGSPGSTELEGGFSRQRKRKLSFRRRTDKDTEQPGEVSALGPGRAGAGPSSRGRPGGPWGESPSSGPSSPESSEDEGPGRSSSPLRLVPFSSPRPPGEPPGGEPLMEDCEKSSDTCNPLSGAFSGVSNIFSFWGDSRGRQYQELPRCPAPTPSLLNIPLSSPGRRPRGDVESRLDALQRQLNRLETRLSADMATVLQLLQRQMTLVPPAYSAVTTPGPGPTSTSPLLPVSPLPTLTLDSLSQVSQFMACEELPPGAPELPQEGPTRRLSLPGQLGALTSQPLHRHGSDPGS

| SMILES | hERG current change (%, negative = inhibition) at 1uM |
| --- | --- |
| C[C@@H](CC#N)CN1CC[C@H](C(C)(C)C)CCC1=O | 3.06% |
| CC(=O)Nc1ccc(S(=O)(=O)Nc2nccs2)cc1 | 16.2% |
| COc1cccc(CNC(=O)CCC2CCCN(C(=O)c3ccc(F)c(Cl)c3)C2)c1 (centres unmarked) | 2.1% |
| O=C1NC(NS(=O)(=O)c2ccc(Cl)cc2)(C(F)(F)F)C(=O)N1Cc1cccnc1 (centres unmarked) | 1.49% |
| CCN(Cc1ccccc1)C(=O)Cn1c(=O)oc2ccccc21 | 20.7% |
| Cc1cccc(C)c1NC(=O)N1C2CCCC1CC(NC(=O)C(C)(C)C)C2 (centres unmarked) | 13.6% |
| Nc1nonc1-n1nnc(C(=O)N/N=C/c2c(F)cccc2Cl)c1-c1ccc2c(c1)OCO2 | 13.7% |
| Cc1ccsc1/C=N/NC(=O)C(=O)NCC(C)C | 3.1% |
| O=C1CSC(c2cn(-c3ccccc3)nc2-c2cc3ccccc3oc2=O)N1Cc1cccnc1 (centres unmarked) | 1.82% |
| CC1(NC(=O)N2CCCCC2)CCS(=O)(=O)C1 (centres unmarked) | 4.09% |
| CN(C)/C=N/c1ncc(C(=O)c2ccc(Cl)cc2)s1 | -1.2% |
| Cc1nc2ccc(S(=O)(=O)NC(C(=O)NCc3ccco3)C(C)C)cc2s1 (centres unmarked) | 5.36% |
| COC(=O)\C(C(C)=O)=C(/C=C/C=C/N(C)C)N(C)C | 2.95% |
| Cc1c(NC(=O)CSc2nnc(-c3cccnc3)n2N)c(=O)n(-c2ccccc2)n1C | 4.85% |
| Cc1ccc2nc(NCc3ccc(F)cc3)c3nncn3c2c1 | 11.3% |
| N=C1/C(=C\c2ccc(OC(=O)c3ccccc3Cl)cc2)C(=O)N=C2SC(N3CCOCC3)=NN12 | 8.44% |
| COc1ccc(CNC(=O)C(C)N2CCN(c3ccc(C(C)=O)cc3)CC2)cc1 (centres unmarked) | -12.7% |
| CC(C)c1ccc2[nH]c(O)c(N=NC(=O)c3cccc(S(=O)(=O)Nc4ccc(Cl)cc4)c3)c2c1 | 12.3% |
| ON=C1/C(=N\O)CC2(C/C1=N/O)OCCO2 | 6.28% |
| CC(=O)C(/C=N/c1cc(-c2ccc(C)cc2)nn1-c1ccccc1)=C(\C)O | 1.68% |
| Cc1nn(CCCC(=O)Nc2cc(Oc3ccccc3)cc([N+](=O)[O-])c2)c(C)c1[N+](=O)[O-] | 16.2% |
| Cc1ccc(S(=O)(=O)N[C@@H](CC(C)C)C(=O)NCc2ccco2)cc1 | 3.58% |

| SMILES | hERG current change (%, negative = inhibition) at 1uM |
| --- | --- |
| COc1ccccc1NC(=O)CNC(=O)c1ccc([N+](=O)[O-])cc1 | -0.0118% |
| CN(CCCNC(=O)CCc1cn(C)c2ccccc12)C1CCCCC1 | 7.35% |
| Cc1ccc(S(=O)(=O)O)cc1.NC1CCN(c2nc3c(cc2F)c(=O)c(C(=O)O)cn3-c2ccc(F)cc2F)C1 (centres unmarked) | 17.4% |
| CCOC(=O)N1CCN(C(=O)c2cc(-c3ccc(F)cc3)[nH]c2C)CC1 | -54.1% |
| COC(=O)c1ccc(NC(=O)CN2CCC(NC(=O)c3ccco3)CC2)cc1 | -8.47% |
| COc1ccc(OC)c(CN2CCN(C(=O)c3cccc(S(=O)(=O)Nc4ccc(C)cc4)c3)CC2)c1 | 7.19% |
| COc1cc(NC(=O)c2cccc(C)c2)c(Cl)cc1[N+](=O)[O-] | 9.24% |
| COC(=O)C(NC(=O)c1ccccc1)(Nc1nccs1)C(F)(F)F (centres unmarked) | 7.64% |
| Cc1cc(-c2n[nH]c(=S)n2Cc2ccccc2)cs1 | 9.2% |
| Cn1cnnc1SCC(=O)NC1CCCC1 | -3.71% |
| CCCCN(CC)CCCNC(=O)CS(=O)(=O)Cc1nc(-c2cccc(OC)c2)oc1C | -1.08% |
| Cl.O=C(/C=C/c1cccc(F)c1)NCCCn1ccnc1 | -2.13% |
| Cc1cc(SCC(=O)c2ccc(O)c(O)c2)n2nc(C)c(-c3ccccc3)c2n1 | 9.2% |
| Cc1ccc(CNC(=O)CCS(=O)(=O)Cc2ccc(C)cc2)cc1 | 12.6% |
| CN(C)S(=O)(=O)c1ccc(C(=O)N2CCCC2c2nc3ccccc3s2)cc1 (centres unmarked) | 5.59% |
| O=C1CSC(c2ccc(Cl)cc2)N1C1CCCCC1 (centres unmarked) | 1.85% |
| Cc1cccc(-c2nc3c(c(SCC(=O)N4CCOCC4)n2)COC(C)(C)C3)c1 | 5.85% |
| O=C(Cn1ccc2ccccc2c1=O)NCC(=O)N1CCCCC1 | 21.2% |
| Cc1ccc(NCc2ccc(C)s2)cc1 | 19.4% |
| CN(Cc1ccc(OC(F)F)cc1)C(=O)c1ccccc1Sc1ccccc1C#N | -29.2% |
| CCOC(=O)c1cccc(NC(=O)CNS(=O)(=O)c2cccs2)c1 | 6.79% |
| CCCCOc1ccc(-c2c(C(=O)Nc3ccccc3)c(C)[nH]c(=S)c2C#N)cc1 | 14.5% |
